31 molecules from publication PMC9911399, “Two distinct binding modes provide the RNA-binding protein RbFox with extraordinary sequence specificity” can be followed below.

T1: RBFOX1 RRM (Homo sapiens, UniProt Q9NWB1 109-208)
T1 sequence: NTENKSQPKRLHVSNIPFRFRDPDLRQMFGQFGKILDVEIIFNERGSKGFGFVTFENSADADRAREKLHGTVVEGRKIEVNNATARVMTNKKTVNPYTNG

B1: GGCUGUG (DNA:RNA)
RNA: GGGAGACCGGAAUUCAGAUUGUCCGGCUGUGUUAAAUCCCGUCGUAGCCACCA
DNA 1: CAATCTGAATTCCGGTCTCCC
DNA 2: TGGTGGCTACGACGGGATT
B2: GGUGCUA (DNA:RNA)
RNA: B1 RNA with C27U, U28G, G29C, G31A
DNA 1: CAATCTGAATTCCGGTCTCCC
DNA 2: TGGTGGCTACGACGGGATT
B3: UAGGUGG (DNA:RNA)
RNA: B1 RNA with G25U, G26A, C27G, U28G, G29U, U30G
DNA 1: CAATCTGAATTCCGGTCTCCC
DNA 2: TGGTGGCTACGACGGGATT
B4: CCGGCAG (DNA:RNA)
RNA: B1 RNA with G25C, G26C, C27G, U28G, G29C, U30A
DNA 1: CAATCTGAATTCCGGTCTCCC
DNA 2: TGGTGGCTACGACGGGATT
B5: UUCUCUU (DNA:RNA)
RNA: B1 RNA with G25U, G26U, G29C, G31U
DNA 1: CAATCTGAATTCCGGTCTCCC
DNA 2: TGGTGGCTACGACGGGATT
B6: UGAGCAA (DNA:RNA)
RNA: B1 RNA with G25U, C27A, U28G, G29C, U30A, G31A
DNA 1: CAATCTGAATTCCGGTCTCCC
DNA 2: TGGTGGCTACGACGGGATT
B7: UAUUAGC (DNA:RNA)
RNA: B1 RNA with G25U, G26A, C27U, G29A, U30G, G31C
DNA 1: CAATCTGAATTCCGGTCTCCC
DNA 2: TGGTGGCTACGACGGGATT
B8: GGUUGUU (DNA:RNA)
RNA: B1 RNA with C27U, G31U
DNA 1: CAATCTGAATTCCGGTCTCCC
DNA 2: TGGTGGCTACGACGGGATT
B9: CGACAGA (DNA:RNA)
RNA: B1 RNA with G25C, C27A, U28C, G29A, U30G, G31A
DNA 1: CAATCTGAATTCCGGTCTCCC
DNA 2: TGGTGGCTACGACGGGATT
B10: AGAUGUC (DNA:RNA)
RNA: B1 RNA with G25A, C27A, G31C
DNA 1: CAATCTGAATTCCGGTCTCCC
DNA 2: TGGTGGCTACGACGGGATT
B11: AUGGGGU (DNA:RNA)
RNA: B1 RNA with G25A, G26U, C27G, U28G, U30G, G31U
DNA 1: CAATCTGAATTCCGGTCTCCC
DNA 2: TGGTGGCTACGACGGGATT
B12: UGAUUGU (DNA:RNA)
RNA: B1 RNA with G25U, C27A, G29U, U30G, G31U
DNA 1: CAATCTGAATTCCGGTCTCCC
DNA 2: TGGTGGCTACGACGGGATT
B13: CUGUGCG (DNA:RNA)
RNA: B1 RNA with G25C, G26U, C27G, U30C
DNA 1: CAATCTGAATTCCGGTCTCCC
DNA 2: TGGTGGCTACGACGGGATT
B14: CCCUGCA (DNA:RNA)
RNA: B1 RNA with G25C, G26C, U30C, G31A
DNA 1: CAATCTGAATTCCGGTCTCCC
DNA 2: TGGTGGCTACGACGGGATT
B15: CCCGCAG (DNA:RNA)
RNA: B1 RNA with G25C, G26C, U28G, G29C, U30A
DNA 1: CAATCTGAATTCCGGTCTCCC
DNA 2: TGGTGGCTACGACGGGATT
B16: AGGCAUC (DNA:RNA)
RNA: B1 RNA with G25A, C27G, U28C, G29A, G31C
DNA 1: CAATCTGAATTCCGGTCTCCC
DNA 2: TGGTGGCTACGACGGGATT
B17: UAUGAUG (DNA:RNA)
RNA: B1 RNA with G25U, G26A, C27U, U28G, G29A
DNA 1: CAATCTGAATTCCGGTCTCCC
DNA 2: TGGTGGCTACGACGGGATT
B18: GUAUACG (DNA:RNA)
RNA: B1 RNA with G26U, C27A, G29A, U30C
DNA 1: CAATCTGAATTCCGGTCTCCC
DNA 2: TGGTGGCTACGACGGGATT
B19: CAUAUUA (DNA:RNA)
RNA: B1 RNA with G25C, G26A, C27U, U28A, G29U, G31A
DNA 1: CAATCTGAATTCCGGTCTCCC
DNA 2: TGGTGGCTACGACGGGATT
B20: GGACACC (DNA:RNA)
RNA: B1 RNA with C27A, U28C, G29A, U30C, G31C
DNA 1: CAATCTGAATTCCGGTCTCCC
DNA 2: TGGTGGCTACGACGGGATT
B21: GAGAAAU (DNA:RNA)
RNA: B1 RNA with G26A, C27G, U28A, G29A, U30A, G31U
DNA 1: CAATCTGAATTCCGGTCTCCC
DNA 2: TGGTGGCTACGACGGGATT
B22: UACACUA (DNA:RNA)
RNA: B1 RNA with G25U, G26A, U28A, G29C, G31A
DNA 1: CAATCTGAATTCCGGTCTCCC
DNA 2: TGGTGGCTACGACGGGATT
B23: CAACGGA (DNA:RNA)
RNA: B1 RNA with G25C, G26A, C27A, U28C, U30G, G31A
DNA 1: CAATCTGAATTCCGGTCTCCC
DNA 2: TGGTGGCTACGACGGGATT
B24: CUAUCUA (DNA:RNA)
RNA: B1 RNA with G25C, G26U, C27A, G29C, G31A
DNA 1: CAATCTGAATTCCGGTCTCCC
DNA 2: TGGTGGCTACGACGGGATT
B25: UGGUCAA (DNA:RNA)
RNA: B1 RNA with G25U, C27G, G29C, U30A, G31A
DNA 1: CAATCTGAATTCCGGTCTCCC
DNA 2: TGGTGGCTACGACGGGATT
B26: AUACUAC (DNA:RNA)
RNA: GGGAGACCGGAAUUCAGAUUGUCCAUACUACUUAAAUCCCGUCGUAGCCACCA
DNA 1: CAATCTGAATTCCGGTCTCCC
DNA 2: TGGTGGCTACGACGGGATT
B27: CAGGACG (DNA:RNA)
RNA: B1 RNA with G25C, G26A, C27G, U28G, G29A, U30C
DNA 1: CAATCTGAATTCCGGTCTCCC
DNA 2: TGGTGGCTACGACGGGATT
B28: AUACAAG (DNA:RNA)
RNA: B26 RNA with U29A, C31G
DNA 1: CAATCTGAATTCCGGTCTCCC
DNA 2: TGGTGGCTACGACGGGATT
B29: UGGAGAG (DNA:RNA)
RNA: B1 RNA with G25U, C27G, U28A, U30A
DNA 1: CAATCTGAATTCCGGTCTCCC
DNA 2: TGGTGGCTACGACGGGATT
B30: UCAAGCA (DNA:RNA)
RNA: B26 RNA with A25U, U26C, C28A, U29G, A30C, C31A
DNA 1: CAATCTGAATTCCGGTCTCCC
DNA 2: TGGTGGCTACGACGGGATT
B31: UUGGCGC (DNA:RNA)
RNA: B26 RNA with A25U, A27G, C28G, U29C, A30G
DNA 1: CAATCTGAATTCCGGTCTCCC
DNA 2: TGGTGGCTACGACGGGATT

Positions count from the first letter of the chain named. Some of the results follow.

This experiment addresses T1, RBFOX1 RRM. In words: EMSA; HiTS-Eq, 1 nM pool, 10 min; buffer printed only for the single-RNA assays: 10 mM Tris pH 7.5, 150 mM NaCl, 3.4 mM EDTA, 0.001% NP-40, 30 C. The note with it: tags: His6 N-terminal (pET28a); label: 5' 32P. In short, it runs like this: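 Purified RbFox RRM, wild type or mutant, was incubated for 10 min in 50 µL with 1 nM of a 5′-radiolabelled RNA pool carrying 7 randomized nucleotides, whose flanks were annealed to DNA oligonucleotides, over a series of increasing protein concentrations. Unbound RNA was resolved on 8% native PAGE, cut out, reverse-transcribed, barcoded by PCR and sequenced on an Illumina HiSeq 2500. Relative association constants were derived from changes in read counts for each RNA species versus the control reaction and normalised to the cognate motif.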
In general terms: A gel shift assay detects complexes by their altered migration in electrophoresis.
Take B1: the binding signal was 0.0314 KA relative to UGCAUGU.

With B2, the binding signal was 0.0065 KA relative to UGCAUGU. For B3, the binding signal was 0.0143 KA relative to UGCAUGU.

Take B4: the binding signal was 0.0196 KA relative to UGCAUGU. As for B5, the figure is 0.0103 KA relative to UGCAUGU. The same measure for B6: 0.0137 KA relative to UGCAUGU. For B7, the binding signal was 0.0126 KA relative to UGCAUGU.

B8: the binding signal was 0.0122 KA relative to UGCAUGU.

On to B9, for which the binding signal is 0.00926 KA relative to UGCAUGU. As for B10, the figure is 0.0104 KA relative to UGCAUGU; as for B11, 0.0147 KA relative to UGCAUGU. As for B12, the binding signal was 0.0253 KA relative to UGCAUGU. In the case of B13, the binding signal is 0.025 KA relative to UGCAUGU.

With B14, the binding signal was 0.0126 KA relative to UGCAUGU. The same measure for B15: 0.0146 KA relative to UGCAUGU; for B16: 0.0123 KA relative to UGCAUGU; for B17: 0.0226 KA relative to UGCAUGU. As for B18, the figure is 0.00681 KA relative to UGCAUGU; as for B19, 0.00187 KA relative to UGCAUGU. On to B20, for which the binding signal is 0.0121 KA relative to UGCAUGU. The same measure for B21: 0.00334 KA relative to UGCAUGU; for B22: 0.000718 KA relative to UGCAUGU; for B23: 0.00758 KA relative to UGCAUGU. The same measure for B24: 0.00338 KA relative to UGCAUGU; for B25: 0.0123 KA relative to UGCAUGU; for B26: 0.00359 KA relative to UGCAUGU. Turning to B27, the binding signal is 0.00691 KA relative to UGCAUGU.

Regarding B28, the binding signal is 0.00244 KA relative to UGCAUGU.

B29: the binding signal is 0.0249 KA relative to UGCAUGU. On to B30, for which the binding signal is 0.00846 KA relative to UGCAUGU.

On to B31, for which the binding signal is 0.0249 KA relative to UGCAUGU.
